The list shows a part of the results.
T1: UNK ZnF1-3 (human, UniProt Q9C0B0 31-174)
T1 sequence: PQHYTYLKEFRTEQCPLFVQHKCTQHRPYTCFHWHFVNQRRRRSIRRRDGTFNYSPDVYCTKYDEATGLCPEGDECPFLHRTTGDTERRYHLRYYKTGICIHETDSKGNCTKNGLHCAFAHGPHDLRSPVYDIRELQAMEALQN

B1: chr5:137354059:137354060:-_ENSG00000031003_ENST00000033079|hu_hu|FALSE|FALSE (ssRNA)
RNA: GGGAGUUCUACAGUCCGACGAUCGUGAAUAUGUAAACUGCCAGGGAUAACAGGUUCAGGAAGUUCUUGAAGAAAAAAUCUAAGAAGGCUAAUAGCUGAGGGAACAUCUGCUUCCUUAACCAAAUCCACCUCUUCUCCGCUGUCCAACAGAGGAUUGAGCAUCA
B2: chr6:57672499:57672500:+_ENSMUSG00000062190_ENSMUST00000050077|mus_hu|motif|central (ssRNA)
RNA: GGGAGUUCUACAGUCCGACGAUCUCGGAGCAGGUAGGUUUGGUCACAUGUGACCCGGUACAACUGCAGGUACAAAAGGGCGGUGCCUGUCCAGCCAGUAUAAGCAGAGCAGUCAUGGGGAUCAGCUGUCUUCAGCCCUUCUUCCAACAGAGGAUUGAGCAUCA
B3: chr17:64801638:64801639:+_ENSG00000154229_ENST00000413366|hu_mus|hu_hu_hu_mus_False|98_98 (ssRNA)
RNA: GGGAGUUCUACAGUCCGACGAUCUAUAUAUAUAUAUAUAUACACACACAUAUAUAGUAAAACCCUAGUUAAACGUGUAAAGUAGCCAUUCAUUUUUAAAAUUACAUCUACAUUAAAAAAUUAAUAUAUCUGAUAGAGUGCCAGCAACAGAGGAUUGAGCAUCA
B4: chr1:50642785:50642786:+_ENSG00000162374_ENST00000371827|hu_mus|FALSE|FALSE (ssRNA)
RNA: GGGAGUUCUACAGUCCGACGAUCAGUGUUGAUGGCUUUCUCUGCAUCCUUUGGAUCAAUAUAGUUAACAAAUCCAUACCCUAAACUCUGUCCUGUGAUUUUGUCUCUCACGAGUUUGCAGGAUUCUAUUUCACCAAUGCUCCCCAACAGAGGAUUGAGCAUCA
B5: chrX:71549400:71549401:+_ENSMUSG00000019087_ENSMUST00000019231|mus_hu|mus_mus_mus_hu_False|28_108 (ssRNA)
RNA: GGGAGUUCUACAGUCCGACGAUCGCAAGGAAGAGGAGGAAGCUCUUCAGUCCAGUGCGCUGCAGGGUGGGAAAGCAACAACACGGACACCGUCCCACCCUCAACCCUCUCAGGUGUACAGGGUCACACAAUCUGGGUCAAAGACAACAGAGGAUUGAGCAUCA
B6: chr16:94690093:94690094:+_ENSMUSG00000040785_ENSMUST00000117648|mus_hu|mus_mus_mus_hu_True|28_38 (ssRNA)
RNA: GGGAGUUCUACAGUCCGACGAUCGGGCUGGGAUGACGGACACACAGCCUCGAUUCCAGGGGGAAAAAGUCUUAGUCGAUACUAAUUAAAAAGUGUUUUUAUAAUUGAUUACCAAAAUUACAUCUAUAAAAGAUGAAAAGCAAACAACAGAGGAUUGAGCAUCA
B7: 63782044_63782164_1043_ncRNA_ENSMUSG00000025962_ENSMUST00000128621|mouse|control|control (ssRNA)
RNA: GGGAGUUCUACAGUCCGACGAUCCAGAGAAGUCAGGUGUUACCUCCAAUUUCUUCUUAAGUGCAGAUGGUGCGUCUUUCCCAAUACAUUUCAUCACUGUUUGUAAGGUGAAGACAUGUUUUAUGUUCCAAACUUGCUGAUCAACAACAGAGGAUUGAGCAUCA
B8: chr15:83699029:83699030:-_ENSG00000064726_ENST00000261721|hu_mus|FALSE|FALSE (ssRNA)
RNA: GGGAGUUCUACAGUCCGACGAUCGCAUCGUGGCCGAUCAAUGUACUCUACUCGGGGUUUAGGAUUGACGGUAAAAUGAAGAAAGAGGUUUACCACUUCACGGUCUGACAAAAUUCCAGAUUGAGCAGGACCUGCUGCAAACUCCAACAGAGGAUUGAGCAUCA
B9: chr12:105536279:105536280:+_ENSG00000136051_ENST00000332180|hu_mus|FALSE|FALSE (ssRNA)
RNA: GGGAGUUCUACAGUCCGACGAUCAGCACUGAACAUGUAAUGUAAUCUGGCUGCAUCGACAGCAUUUUCAUAUACAUCAUCUAAAUAAAUCGGGAAGACAGCGCGAUGCCAGUAUAAAAAACAGCAGUCACACUGUGCUUGGACCAACAGAGGAUUGAGCAUCA
B10: chr2:42509997:42509998:+_ENSG00000143924_ENST00000318522|hu_mus|hu_hu_hu_mus_True|38_58 (ssRNA)
RNA: GGGAGUUCUACAGUCCGACGAUCUCGCUGAGUCCUCUCCUCAUAAUUAAACAGGACUACCACUGAGGCGAUAAAAUAAACUAUUUUCCCUGUGGGAAGAAGGUAAACAUUCGCUCUACAGUCCUUUCCUCGAUAACCGUAUACCAACAGAGGAUUGAGCAUCA
B11: chr4:62795864:62795865:+_ENSMUSG00000028358_ENSMUST00000107415|mus_hu|motif|central (ssRNA)
RNA: GGGAGUUCUACAGUCCGACGAUCCAGAGUCUAAAUCAAAUCUGAAGAAACAAAAUGAACCCCCAAACAAGGUAAAAAUUGCGGAAAUGUUAGGGAGAGAAAUUAUUAGGGAGUGGAGACAGUAUCUAUACUUCUCUGAAAAAUCAACAGAGGAUUGAGCAUCA
B12: chr11:72025555:72025556:-_ENSMUSG00000020801_ENSMUST00000021157|mus_mus|motif|central (ssRNA)
RNA: GGGAGUUCUACAGUCCGACGAUCCGCACACUGCGCAUUCACCAGCUCCUUGCGAAAGUGCUCAUACUGGAGCAGCUCGGACAUAUGUAAGCACUGAGGGUACUUUAGAUAUUUGGCAUAUUCUGGUUCUUUCCAGUAAAGCAACAACAGAGGAUUGAGCAUCA
B13: chr8:59488481:59488482:+_ENSG00000137575_ENST00000447182|hu_hu|FALSE|FALSE (ssRNA)
RNA: GGGAGUUCUACAGUCCGACGAUCUCCAACAUCAUUACCAGUUACAGGAGCCACCAUAUAGUUUAUACUGGAAGGUCUUGCUACCAACCCCUGAAGUGGUGCACCAGAAACCACGGCCACAUUUGCACGUAUUUCUUCUUCAUUCAACAGAGGAUUGAGCAUCA
B14: 132416488_132418784_630_CDS_ENSMUSG00000028879_ENSMUST00000030698|mouse|control|control (ssRNA)
RNA: GGGAGUUCUACAGUCCGACGAUCUUUGAUGAGUUCCAGGUCUUGCUCAGUGAUGGCCGCCUCUUCCUCCUGGCUCUGCAUUUGGUUCCACUCUUCAUGGCUGUCAAAUGAGACGAGCUGCUCUUCUCUCUGCCUGUCUUCUGCCAACAGAGGAUUGAGCAUCA

Target: T1, UNK ZnF1-3
Test: nsRBNS (natural sequence RNA bind-n-seq); RBNS binding buffer (assumed for nsRBNS): 25 mM Tris pH 7.5, 150 mM KCl, 3 mM MgCl2, 0.01% Triton X-100, 500 ug/ml BSA, 20 U/ml SUPERase-In, 4 C; UNK is unkempt and MSI1 is Musashi-1; names of the RNAs are library labels; protein concentration not given here; high values mean tight binding

In order of rising binding signal:
1. B4  0.478 enrichment R
2. B14  0.485 enrichment R
3. B7  0.609 enrichment R
4. B12  0.73 enrichment R
5. B5  0.944 enrichment R
6. B2  1.03 enrichment R
7. B8  1.1 enrichment R
8. B10  1.14 enrichment R
9. B1  1.17 enrichment R
10. B13  1.25 enrichment R
11. B6  1.26 enrichment R
12. B11  1.32 enrichment R
13. B9  1.65 enrichment R
14. B3  2.42 enrichment R

— publication PMC12136788
